In the supplement of paper PMC7125110:
Variants at the floor of the assay are shown more often than the library holds them.

B1: glmS ribozyme (parent)
chain: AUAAAAGCGCCAGAACUACAGAAAUGUAGUUGACGAGGAGGAGGUUUAUCGAAUUUUCGGCGGAUGCCUCCAAA

Experiments:
Conditions in all cases: with glucosamine-6-phosphate
glucosamine-6-phosphate [1] = variants of: B1; test: self-cleavage kobs at 40 uM GlcN6P; higher = faster cleavage; RNA array
Outline: (§1)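 kcat and KM were obtained from weighted Michaelis–Menten fits across concentrations of kobs values. Those came from one- or two-exponential decay fits to per-tile medians normalised to baseline and to non-cleaving reference variants. The variants were barcoded ribozymes transcribed in situ by E. coli RNA polymerase on sequenced MiSeq chips and tracked through a hybridised Cy3 probe at 37 °C, with 40 μM to 10 mM glucosamine-6-phosphate in HEPES/KCl/Mg(OAc)2 buffer flowed in.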

glucosamine-6-phosphate [2] = variants of: B1; test: self-cleavage kobs at 640 uM GlcN6P; higher = faster cleavage; RNA array
Outline: as §1

glucosamine-6-phosphate [3] = variants of: B1; test: self-cleavage kobs at 10000 uM GlcN6P; higher = faster cleavage; RNA array
Outline: as §1

glucosamine-6-phosphate [4] = variants of: B1; test: self-cleavage kobs at 160 uM GlcN6P; higher = faster cleavage; RNA array
Outline: as §1

glucosamine-6-phosphate [5] = variants of: B1; test: self-cleavage kobs at 2500 uM GlcN6P; higher = faster cleavage; RNA array
Outline: as §1

AUAAAAGCGCCAGAACUACAGAAAUGUAGUUGACUAGGAGGAGGUUUAUCGAAUUUUGGGCGGAUUCCUCCAAA
< 1e-05 s⁻¹: self-cleavage kobs at 40 uM GlcN6P (glucosamine-6-phosphate [1]) | self-cleavage kobs at 640 uM GlcN6P (glucosamine-6-phosphate [2]) | self-cleavage kobs at 10000 uM GlcN6P (glucosamine-6-phosphate [3])

AUAAAAGCGCCAGAACUACAGAAAUGUAGUUGACUAGUAGGAGGUUUAUCGAAUUUUCGGCGGAUGCCUCCAAA
< 1e-05 s⁻¹: self-cleavage kobs at 40 uM GlcN6P (glucosamine-6-phosphate [1]) | self-cleavage kobs at 640 uM GlcN6P (glucosamine-6-phosphate [2]) | self-cleavage kobs at 160 uM GlcN6P (glucosamine-6-phosphate [4]) | self-cleavage kobs at 2500 uM GlcN6P (glucosamine-6-phosphate [5])

AUAAAAGCGCCAGAACUACAGAAAUGUAGUUGACCAGGAGGAGGUUUAUCGAAUUUUCGUCGGAUGCCUCCAAA
< 1e-05 s⁻¹: self-cleavage kobs at 40 uM GlcN6P (glucosamine-6-phosphate [1]) | self-cleavage kobs at 2500 uM GlcN6P (glucosamine-6-phosphate [5]) | self-cleavage kobs at 10000 uM GlcN6P (glucosamine-6-phosphate [3])

AUAAAAGCGCCAGAACUACAGAAAUGUAGUUGACCAGGAGGAGGUUUAUCGAAUUUUCGCCGGAUGCCUCCAAA
< 1e-05 s⁻¹: self-cleavage kobs at 40 uM GlcN6P (glucosamine-6-phosphate [1]) | self-cleavage kobs at 640 uM GlcN6P (glucosamine-6-phosphate [2]) | self-cleavage kobs at 160 uM GlcN6P (glucosamine-6-phosphate [4]) | self-cleavage kobs at 2500 uM GlcN6P (glucosamine-6-phosphate [5]) | self-cleavage kobs at 10000 uM GlcN6P (glucosamine-6-phosphate [3])

AUAAAAGCGCCAGAACUACAGAAAUGUAGUUGACCAGGAGGAGGUUUAUCGAAUUUGCGGCGGAUGCCUCCAAA
< 1e-05 s⁻¹: self-cleavage kobs at 40 uM GlcN6P (glucosamine-6-phosphate [1]) | self-cleavage kobs at 640 uM GlcN6P (glucosamine-6-phosphate [2])

AUAAAAGCGCCAGAACUACAGAAAUGUAGUUGACUAGGAGGAGGUUUAUCGAAUUUUCCGCGGAUGCAUCCAAA
< 1e-05 s⁻¹: self-cleavage kobs at 40 uM GlcN6P (glucosamine-6-phosphate [1]) | self-cleavage kobs at 10000 uM GlcN6P (glucosamine-6-phosphate [3])

AUAAAAGCGCCAGAACUACAGAAAUGUAGUUGACUAGGAGGAGGUUUAUCGAAUUUUCGGCGUAUGUCUCCAAA
< 1e-05 s⁻¹: self-cleavage kobs at 40 uM GlcN6P (glucosamine-6-phosphate [1]) | self-cleavage kobs at 640 uM GlcN6P (glucosamine-6-phosphate [2]) | self-cleavage kobs at 160 uM GlcN6P (glucosamine-6-phosphate [4]) | self-cleavage kobs at 2500 uM GlcN6P (glucosamine-6-phosphate [5]) | self-cleavage kobs at 10000 uM GlcN6P (glucosamine-6-phosphate [3])

AUAAAAGCGCCAGAACUACAGAAAUGUAGUUGACUAGGAGGAGGUUUUUCGAUUUUUCGGCGGACGCCUCCAAA
< 1e-05 s⁻¹: self-cleavage kobs at 40 uM GlcN6P (glucosamine-6-phosphate [1]) | self-cleavage kobs at 160 uM GlcN6P (glucosamine-6-phosphate [4]) | self-cleavage kobs at 2500 uM GlcN6P (glucosamine-6-phosphate [5]) | self-cleavage kobs at 10000 uM GlcN6P (glucosamine-6-phosphate [3])

AUAAAAGCGCCAGAACUACAGAAAUGUAGUUGACUAGGAGGAGGUUUACCGAAUUUUCGGCGGAUGCCUCCAAA
< 1e-05 s⁻¹: self-cleavage kobs at 40 uM GlcN6P (glucosamine-6-phosphate [1]) | self-cleavage kobs at 640 uM GlcN6P (glucosamine-6-phosphate [2]) | self-cleavage kobs at 160 uM GlcN6P (glucosamine-6-phosphate [4]) | self-cleavage kobs at 2500 uM GlcN6P (glucosamine-6-phosphate [5])

AUAAAAGCGCCAGAACUACAGAAAUGUAGUUGACUAGGAGGAGGUUUAUCGCAUUUUCGGCGGAUGCCUCCAAA
< 1e-05 s⁻¹: self-cleavage kobs at 40 uM GlcN6P (glucosamine-6-phosphate [1])

AUAAAAGCGCCAGAACUACAGAAAUGUAGUUGACUAGGAGGAGGUUUAUCGUAUUUUCGGCGGAUGCCUCCAAA
< 1e-05 s⁻¹: self-cleavage kobs at 40 uM GlcN6P (glucosamine-6-phosphate [1]) | self-cleavage kobs at 640 uM GlcN6P (glucosamine-6-phosphate [2]) | self-cleavage kobs at 160 uM GlcN6P (glucosamine-6-phosphate [4]) | self-cleavage kobs at 2500 uM GlcN6P (glucosamine-6-phosphate [5]) | self-cleavage kobs at 10000 uM GlcN6P (glucosamine-6-phosphate [3])
